Results from patent US5124150A.

Test system: human T-lymphotropic virus type III B (HTLV-IIIB)
Assay: HIV-induced cell damage in MT-4 cells, trypan blue dye exclusion
Settings: multiplicity of infection 0.002, concentration higher than 25 μg/ml
Protocol: Anti-HIV activity was evaluated using the human T-lymphotropic virus type III B (HTLV-IIIB) and HTLV-type I carrying, MT-4 cells. The number of viable MT-4 cells infected with HIV at a multiplicity of infection of 0.002, decreased during the cultivation and almost all cells died within 6 days after infection as determined by a trypan blue dye exclusion method (Antimicrob. Agents and Chemother. 30 933-37, 1986).

## C/C1=C\C=C\C2(C)C=C(CO[C@H]3O[C@H](CO)[C@H](O)[C@H](O)[C@H]3O)C(C)CC23OC(O)C(C3=O)C(O)/C=C/C2(C)C=C(C=O)C(C)CC23OC(O)C(C3=O)C(O)/C(C)=C/C=C/C2C=C(CO[C@H]3O[C@H](CO)[C@H](O)[C@H](O)[C@H]3O)C(C)CC23OC(O)C(C3=O)C(O)/C=C/C2(C)C=C(C=O)C(C)CC23OC(O)C(C3=O)C1O (stereo partly shown)
  cell damage induced by HIV: significantly inhibited
